Laboratory results published in article PMC10320511.
These are yes or no findings as the source states them, for the method shown. Binding seen in cells or lysates may run through a third protein. Tags and fused reporters may be left off the sequences shown.

Sequences of proteins named here, by UniProt entry; tags and fusion partners are left off.
UniProt Q01371: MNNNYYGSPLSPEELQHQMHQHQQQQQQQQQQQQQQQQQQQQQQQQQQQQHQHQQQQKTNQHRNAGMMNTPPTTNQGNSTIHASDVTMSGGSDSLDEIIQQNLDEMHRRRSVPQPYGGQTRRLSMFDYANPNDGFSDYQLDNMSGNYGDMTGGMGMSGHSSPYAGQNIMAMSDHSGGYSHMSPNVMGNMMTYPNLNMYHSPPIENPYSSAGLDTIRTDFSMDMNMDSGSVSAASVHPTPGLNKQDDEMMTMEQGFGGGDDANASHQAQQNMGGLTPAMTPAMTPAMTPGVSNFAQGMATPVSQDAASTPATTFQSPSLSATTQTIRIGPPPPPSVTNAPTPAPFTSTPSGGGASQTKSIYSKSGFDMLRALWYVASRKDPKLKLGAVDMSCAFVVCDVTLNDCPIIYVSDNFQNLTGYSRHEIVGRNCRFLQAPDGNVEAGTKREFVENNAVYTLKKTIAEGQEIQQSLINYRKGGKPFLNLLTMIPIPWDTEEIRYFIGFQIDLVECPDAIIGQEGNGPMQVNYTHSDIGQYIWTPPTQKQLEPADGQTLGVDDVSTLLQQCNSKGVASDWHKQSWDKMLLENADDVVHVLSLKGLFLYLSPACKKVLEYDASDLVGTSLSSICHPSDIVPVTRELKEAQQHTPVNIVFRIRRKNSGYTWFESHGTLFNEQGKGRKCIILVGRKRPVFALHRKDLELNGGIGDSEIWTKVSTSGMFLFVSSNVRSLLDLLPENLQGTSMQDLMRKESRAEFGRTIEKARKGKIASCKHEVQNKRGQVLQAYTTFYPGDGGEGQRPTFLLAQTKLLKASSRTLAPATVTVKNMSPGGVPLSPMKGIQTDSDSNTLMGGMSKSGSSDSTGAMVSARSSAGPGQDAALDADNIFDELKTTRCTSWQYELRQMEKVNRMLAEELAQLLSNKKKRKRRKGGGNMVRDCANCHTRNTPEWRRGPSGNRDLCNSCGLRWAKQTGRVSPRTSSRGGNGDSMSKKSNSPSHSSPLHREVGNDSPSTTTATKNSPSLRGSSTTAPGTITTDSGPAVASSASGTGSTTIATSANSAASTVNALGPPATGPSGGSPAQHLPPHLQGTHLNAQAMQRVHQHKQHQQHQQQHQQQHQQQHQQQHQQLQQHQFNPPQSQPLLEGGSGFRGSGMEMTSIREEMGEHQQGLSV

Columns and labels:
[1] = molecular target: T1, FRQ Δ482–510, V5H6-tagged (Neurospora crassa) (UniProt P19970); experiment: co-IP; V5H6-tagged FRQ (wild type or mutant) pulled down with V5 agarose from Neurospora lysate (cultures in the light, 25 °C); 50 mM Hepes pH 7.4, 137 mM NaCl, 10% glycerol, 0.4% NP-40; 4 °C, 2 h; Western blot with FRQ, FRH, WC-1 and WC-2 antibodies
T1 sequence: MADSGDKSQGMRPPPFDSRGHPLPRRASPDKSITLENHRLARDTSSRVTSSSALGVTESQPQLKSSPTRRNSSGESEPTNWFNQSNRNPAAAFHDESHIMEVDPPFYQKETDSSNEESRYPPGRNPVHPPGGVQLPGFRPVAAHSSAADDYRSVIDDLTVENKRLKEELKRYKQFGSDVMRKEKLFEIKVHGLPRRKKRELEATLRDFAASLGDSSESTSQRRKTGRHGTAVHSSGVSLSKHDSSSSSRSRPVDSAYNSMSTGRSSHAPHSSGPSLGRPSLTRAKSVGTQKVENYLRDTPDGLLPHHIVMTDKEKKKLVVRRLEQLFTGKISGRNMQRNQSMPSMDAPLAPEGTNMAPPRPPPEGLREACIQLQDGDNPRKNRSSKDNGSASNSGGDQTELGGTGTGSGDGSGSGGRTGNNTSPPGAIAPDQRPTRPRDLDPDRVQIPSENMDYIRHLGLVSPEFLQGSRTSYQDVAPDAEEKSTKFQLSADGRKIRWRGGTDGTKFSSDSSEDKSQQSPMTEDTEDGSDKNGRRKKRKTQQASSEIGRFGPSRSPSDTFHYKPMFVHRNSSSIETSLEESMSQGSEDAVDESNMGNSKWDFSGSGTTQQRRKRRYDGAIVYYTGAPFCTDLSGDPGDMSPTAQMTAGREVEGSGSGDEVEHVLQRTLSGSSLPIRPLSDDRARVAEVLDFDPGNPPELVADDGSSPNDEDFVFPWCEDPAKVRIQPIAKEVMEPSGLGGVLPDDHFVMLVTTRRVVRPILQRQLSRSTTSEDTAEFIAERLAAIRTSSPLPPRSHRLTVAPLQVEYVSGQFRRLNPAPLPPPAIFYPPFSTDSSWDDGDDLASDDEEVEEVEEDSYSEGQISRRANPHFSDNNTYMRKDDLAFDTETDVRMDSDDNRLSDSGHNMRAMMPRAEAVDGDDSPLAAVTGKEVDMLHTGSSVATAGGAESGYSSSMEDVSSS

[2] = molecular target: T2, FRQ Δ511–558, V5H6-tagged (Neurospora crassa) (UniProt P19970); experiment: as above
T2 sequence: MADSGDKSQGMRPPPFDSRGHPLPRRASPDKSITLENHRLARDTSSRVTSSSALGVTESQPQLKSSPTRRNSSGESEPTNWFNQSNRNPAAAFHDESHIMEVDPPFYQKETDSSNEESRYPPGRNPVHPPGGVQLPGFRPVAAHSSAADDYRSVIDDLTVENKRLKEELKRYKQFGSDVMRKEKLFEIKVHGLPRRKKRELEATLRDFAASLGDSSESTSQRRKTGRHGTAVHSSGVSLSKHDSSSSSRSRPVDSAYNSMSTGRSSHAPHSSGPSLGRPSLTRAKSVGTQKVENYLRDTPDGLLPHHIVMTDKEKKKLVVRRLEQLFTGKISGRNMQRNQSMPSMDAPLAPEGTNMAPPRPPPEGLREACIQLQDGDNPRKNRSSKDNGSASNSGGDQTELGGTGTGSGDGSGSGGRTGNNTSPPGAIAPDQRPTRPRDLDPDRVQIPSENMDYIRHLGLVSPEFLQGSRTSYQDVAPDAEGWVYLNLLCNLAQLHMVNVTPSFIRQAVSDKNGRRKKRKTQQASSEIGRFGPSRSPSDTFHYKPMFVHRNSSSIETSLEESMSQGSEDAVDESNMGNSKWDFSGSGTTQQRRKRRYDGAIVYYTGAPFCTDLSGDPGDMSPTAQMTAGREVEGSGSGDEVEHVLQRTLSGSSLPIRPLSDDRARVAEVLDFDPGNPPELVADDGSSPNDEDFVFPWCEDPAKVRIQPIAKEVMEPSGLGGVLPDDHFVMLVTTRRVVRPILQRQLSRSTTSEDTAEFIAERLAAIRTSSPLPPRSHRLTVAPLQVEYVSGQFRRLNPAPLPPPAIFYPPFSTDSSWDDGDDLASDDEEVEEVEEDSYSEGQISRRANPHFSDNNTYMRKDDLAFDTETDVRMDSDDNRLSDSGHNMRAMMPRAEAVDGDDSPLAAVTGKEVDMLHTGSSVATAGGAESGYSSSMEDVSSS

Which binding [1] does the source give for “White Collar-1 (WC-1) (from UniProt Q01371 1-1167)” here?
The binding was “no binding”.

And the binding [2]?
The binding was “no binding”.
